The list shows a part of the results. These are noisy estimates, calculated here from bound and input reads.
target: T1, Pho4 (S. cerevisiae) (UniProt P07270); test: relative binding free energy (BET-seq); higher = weaker binding; details: reference: library average
T1 sequence: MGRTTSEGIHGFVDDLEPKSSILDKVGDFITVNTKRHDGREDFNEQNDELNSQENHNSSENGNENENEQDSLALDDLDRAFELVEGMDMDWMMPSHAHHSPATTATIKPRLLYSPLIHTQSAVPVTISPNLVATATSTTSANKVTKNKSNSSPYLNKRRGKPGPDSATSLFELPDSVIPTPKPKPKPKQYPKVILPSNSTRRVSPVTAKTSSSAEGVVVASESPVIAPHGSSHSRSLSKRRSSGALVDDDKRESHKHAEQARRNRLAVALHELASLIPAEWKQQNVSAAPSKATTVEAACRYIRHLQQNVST

Relative binding free energy, 0.16 kcal/mol:
AGCAGCACGTGAGGGG
GTTATCACGTGTGGGC
TTAATCACGTGGTTAT
GGGAGCACGTGAGCAT

Relative binding free energy, 0.29 kcal/mol:
AGTTTCACGTGATTCT

Relative binding free energy, -0.11 kcal/mol:
TGGCGCACGTGTGGTT
CATTGCACGTGTGTTG

Relative binding free energy, 0.27 kcal/mol:
AAGCTCACGTGGATTG
CTGTTCACGTGGTTTA
GGTAGCACGTGAGTTG
TTCGTCACGTGATGGG
ATTTTCACGTGGTTGT
GCTTTCACGTGGCTGT

Relative binding free energy, 0.25 kcal/mol:
TGTCTCACGTGTGTTC
TAGTTCACGTGCTGAT
CGTTTCACGTGTTTTG

Relative binding free energy, -0.29 kcal/mol:
CCGGGCACGTGGGCGG

Relative binding free energy, 0.3 kcal/mol:
TATTTCACGTGAGTAC
ATGTACACGTGTGTGC

Relative binding free energy, -0.09 kcal/mol:
AGTGGCACGTGTCATA
GATGGCACGTGGTTAA
TATGACACGTGGGGTC
CGGGTCACGTGGGCGT
TTGGGCACGTGGTTGG
TGCGTCACGTGGTGGC
TGTTGCACGTGATTCT

Relative binding free energy, 0.06 kcal/mol:
GGGAACACGTGGATAG
TTTTCCACGTGTGGCT

Relative binding free energy, 0.14 kcal/mol:
GCGGTCACGTGGGTAG
TCTGTCACGTGGTAAT
GTTCGCACGTGTATAT
TTTATCACGTGGCATG
ATTGTCACGTGATTGC
AACTACACGTGTGGGT

Relative binding free energy, 0.21 kcal/mol:
GAAGTCACGTGGATTG
TATTTCACGTGTTATT
TTGTGCACGTGAAAGA

Relative binding free energy, -0.23 kcal/mol:
GGTGCCACGTGTTAGT
TGAGGCACGTGGTCTA

Relative binding free energy, 0.34 kcal/mol:
AAGTTCACGTGGAAGG
AAGTTCACGTGGTTTT

Relative binding free energy, 0.38 kcal/mol:
GTGGTCACGTGAGTCT
TCGATCACGTGAAGTG

Relative binding free energy, -0.15 kcal/mol:
ACTGGCACGTGGTTGC

Relative binding free energy, -0.02 kcal/mol:
AAGAGCACGTGTGTTT
CGTAGCACGTGTTATT
AGTTCCACGTGTGTGT

Relative binding free energy, 0.44 kcal/mol:
GCGTTCACGTGAAGGT

Relative binding free energy, -0.27 kcal/mol:
ACAGGCACGTGGGTGG

Relative binding free energy, -0.21 kcal/mol:
GGGCGCACGTGGTGCT

Relative binding free energy, 0.07 kcal/mol:
TCGGTCACGTGTATGT
ACGTACACGTGATTGT
AGGGACACGTGGCTGA

Relative binding free energy, 0.19 kcal/mol:
TAGTACACGTGAGGGA
TTGTACACGTGTGTTT
TAAGGCACGTGAGATT
GGGCTCACGTGGTGAT

Relative binding free energy, 0.1 kcal/mol:
AAGTGCACGTGATGGG
GGGATCACGTGCATGG
AGCGGCACGTGATGGT
GGGGTCACGTGCGTTA
TTAGTCACGTGGTCGT
GTTGTCACGTGGCCGT
CTTGTCACGTGTTATT
GATTGCACGTGTAATG
CCGGGCACGTGTGATT

Relative binding free energy, 0.09 kcal/mol:
GTCAACACGTGGGGCT
GTATTCACGTGTTAGA
ACTATCACGTGTGTTT
GTAGGCACGTGTTTTC
CATGGCACGTGAGGCG

Relative binding free energy, 0.52 kcal/mol:
GAGTTCACGTGAAGTA

Relative binding free energy, 0.31 kcal/mol:
CGGTTCACGTGAATGG
TAGCGCACGTGAGGTC
TGTATCACGTGTGAGG
GAGAGCACGTGAGGGA

Relative binding free energy, -0.2 kcal/mol:
CAAGGCACGTGGTGTA
TGAAGCACGTGGGTCA
TGTGGCACGTGGTATC

Relative binding free energy, 0.22 kcal/mol:
ATGTTCACGTGCTTAG
CATTTCACGTGTGGCG
TGTTTCACGTGGCTAG
TCGTTCACGTGTTCGT

Relative binding free energy, -0.08 kcal/mol:
TTAGCCACGTGTGTTA
GGACGCACGTGTTAGT
TGGGCCACGTGTGTGA
TGAGGCACGTGGTCAA
GGAGGCACGTGCCGGG

Relative binding free energy, -0.05 kcal/mol:
TTCGGCACGTGGGATT
ATAGACACGTGTATGT

Relative binding free energy, 0.41 kcal/mol:
TAGTTCACGTGCCTTG
TGTTTCACGTGAGATA
GTATACACGTGAGAGT

Relative binding free energy, 0.01 kcal/mol:
ATTAGCACGTGTATAA
TGGTCCACGTGGATAG
GGCGGCACGTGGATGT
TTTGTCACGTGGCCTG
CTGGGCACGTGATGAT
TGTTGCACGTGTTCAG

Relative binding free energy, -0.16 kcal/mol:
TGGCGCACGTGGTAGG
GTAGGCACGTGGTTCA

Relative binding free energy, -0.26 kcal/mol:
TGAAGCACGTGCGGGA

Relative binding free energy, 0.18 kcal/mol:
AGATTCACGTGGTTCG
GGGGGCACGTGAAAAT
AAGTACACGTGTATGA
GTCTGCACGTGGATGA

Relative binding free energy, 0.11 kcal/mol:
TGGTACACGTGTAGGT
CAGTCCACGTGTGTGG
CTCTGCACGTGGATGT
TTCGTCACGTGGTTAC
GAGGTCACGTGGGATT
ATGGTCACGTGGTAGC
GGGTACACGTGTTGAT
GGTGTCACGTGCATGA

Relative binding free energy, 0.32 kcal/mol:
TCGTTCACGTGGAGCG
GGCATCACGTGTGTTG

Relative binding free energy, 0.2 kcal/mol:
ATTTTCACGTGTTCGT
AATGTCACGTGTAAAG
TGATTCACGTGCTGAT
TTGATCACGTGCTGCG

Relative binding free energy, -0.25 kcal/mol:
CGTCGCACGTGGGGCG

Relative binding free energy, 0.26 kcal/mol:
CGCTTCACGTGGTTTG
GTTTACACGTGAAGAT
GTGAACACGTGAGATT
GTAGTCACGTGATACG

Relative binding free energy, -0.07 kcal/mol:
AGTGTCACGTGGGACA
TAATACACGTGGGGCA
TGGAGCACGTGGAAGG
TTTGACACGTGCGTGG
GGAGACACGTGGGGTC
AGTGCCACGTGTTGAT
ATTCGCACGTGTTTAG

Relative binding free energy, -0.03 kcal/mol:
GGCAGCACGTGTAGTG
GGGTGCACGTGATATA
ATTAGCACGTGTGTTA

Relative binding free energy, -0.04 kcal/mol:
AAATGCACGTGGGGAA
AAAGGCACGTGGAAGT
AAATGCACGTGCGTGG
GAGCGCACGTGGATGT
TAGGGCACGTGTCGAG
CAATGCACGTGGTTGT

Relative binding free energy, 0.05 kcal/mol:
TTAGCCACGTGATTTT
TTATGCACGTGTATTT
TTTGTCACGTGGTGTA
TGTGACACGTGATCTG
TGTATCACGTGGCTTA

Relative binding free energy, -0.14 kcal/mol:
AGTAGCACGTGGTTGT
ATTGGCACGTGTCGGA
AGTTGCACGTGGCATA

Relative binding free energy, 0.02 kcal/mol:
TGTTGCACGTGGCCTA
CGAGTCACGTGGTGAT
GAGTGCACGTGCAGGT
TGGGGCACGTGAGCTT

Relative binding free energy, -0.13 kcal/mol:
TATGGCACGTGTGGAC
TGTGCCACGTGGTGCA
TGGGCCACGTGGAGGG
TGTAGCACGTGTTGAC

Relative binding free energy, -0.01 kcal/mol:
AGTAACACGTGTCGTG
GCTTGCACGTGGGAAG

Relative binding free energy, 0.35 kcal/mol:
GGCGTCACGTGTAATG
GTTCTCACGTGATTGG
TGTTTCACGTGTCAAT
GATTTCACGTGTTGTT

Relative binding free energy, 0.28 kcal/mol:
TCAATCACGTGAGGGG
GTGGCCACGTGAGCGG
AGATTCACGTGATTGA
TGTTTCACGTGATTTA

Relative binding free energy, -0.22 kcal/mol:
ATGAGCACGTGGGCCG

Relative binding free energy, 0.45 kcal/mol:
TTCATCACGTGTAGCG

Relative binding free energy, 0.15 kcal/mol:
TTGAACACGTGATGAT
TGGATCACGTGCTGCG
AGGCGCACGTGAGGCA
TTTTGCACGTGAGGCA
TTTATCACGTGCATGG
TATAACACGTGAGTTG
AATGTCACGTGAATTT

Relative binding free energy, 0.17 kcal/mol:
ATTGTCACGTGACGGC
GGTCTCACGTGTGTTG

Relative binding free energy, 0.04 kcal/mol:
TACTGCACGTGGAAGG
ACGGTCACGTGGTTAA
ATGTCCACGTGTATTT
TCTATCACGTGGGAGG
GTAGGCACGTGATTTG
GTAGGCACGTGTGACT

Relative binding free energy, 0.03 kcal/mol:
ATCGTCACGTGTGTAA
CAGTGCACGTGATGTG
AGTTGCACGTGCGGGA

Relative binding free energy, -0.28 kcal/mol:
AGATGCACGTGGGTCT
TAAGGCACGTGGTACG
TTTGGCACGTGGTGCC

Relative binding free energy, 0 kcal/mol:
ATATGCACGTGTTTAT
CTTTGCACGTGAGGGA
AATATCACGTGGTGGT
TATTGCACGTGTGCGA
TTGTGCACGTGATGTC
GTTGCCACGTGAGGGC
TTGGCCACGTGTGCTT

Relative binding free energy, -0.12 kcal/mol:
AAGGACACGTGGGGTG
TCAGGCACGTGATTGT
TGATGCACGTGGGTGA
TTATACACGTGTTAGA

Relative binding free energy, 0.23 kcal/mol:
GAAGGCACGTGAAGGA

Relative binding free energy, 0.08 kcal/mol:
TTGTACACGTGTCGTA
TGGCACACGTGTAAGT
AGTCACACGTGTGGTG
CTGTACACGTGTAGGT
GGAGTCACGTGCGGTT
GGACGCACGTGAGGGT
GTTGACACGTGTTTAG

Relative binding free energy, 0.36 kcal/mol:
ATTATCACGTGAGGTT

Relative binding free energy, 0.12 kcal/mol:
TGGGACACGTGTAGTA
GTTACCACGTGTGGGG
CGTAGCACGTGAGGGC
GATGGCACGTGTAACG

Relative binding free energy, 0.53 kcal/mol:
TGATTCACGTGAGTTT

Relative binding free energy, 0.24 kcal/mol:
TTGTTCACGTGTTCTC
ATGTTCACGTGGTGGA
ATATTCACGTGTACTG
TAATTCACGTGTTTAA
GTGCACACGTGTGTCG
AGAATCACGTGGAAGT

Relative binding free energy, -0.18 kcal/mol:
TGTGCCACGTGGCGAG

Relative binding free energy, -0.06 kcal/mol:
TCGAGCACGTGCTGGT
AGGTGCACGTGGTTTC
GCGGGCACGTGTAAGT
AGAGGCACGTGGTCCG
ACGTACACGTGGGGTT
AGTAACACGTGTTGTT
TATGACACGTGTTTGA
GATACCACGTGGGCGG

Reference: the BET-seq Pho4 binding data (Le et al. 2018)
